In paper PMC12820563, “FoxP3 forms a head-to-head dimer in vivo and stabilizes its multimerization on adjacent microsatellites”:
This is one part of the list.

Target: T1, MBP-FoxP1dN (Mus musculus, UniProt P58462 326-579)
T1 sequence: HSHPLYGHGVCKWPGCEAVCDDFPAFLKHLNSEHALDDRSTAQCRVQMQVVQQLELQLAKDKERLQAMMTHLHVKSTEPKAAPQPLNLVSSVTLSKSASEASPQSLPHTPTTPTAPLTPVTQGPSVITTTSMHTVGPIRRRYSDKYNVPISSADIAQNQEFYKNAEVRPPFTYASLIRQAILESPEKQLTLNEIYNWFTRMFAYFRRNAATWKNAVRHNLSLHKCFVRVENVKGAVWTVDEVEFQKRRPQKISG
Experiment: PD-seq (MBP pull-down with sequencing); 20 mM Tris-HCl pH 7.5, 100 mM NaCl, 1.5 mM MgCl2, 0.4 uM protein, 0.1 uM dsDNA library, 30 min, room temperature, amylose pull-down; high values mean tight binding
Settings: protein: recombinant; tags: His6-MBP; chain copies: 2; dsDNA, one strand shown
Summary of the method: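 Binding is reads-per-million enrichment of pull-down over input, with replicates pooled. It comes from 30 min room-temperature incubation in Tris pH 7.5 buffer with NaCl and MgCl2 of 0.4 µM His6-MBP-tagged, N-terminally truncated mouse FoxP3 or FoxP1 fragment from E. coli with 0.1 µM Klenow-filled degenerate double-stranded DNA library, followed by amylose resin capture, three washes and Illumina sequencing of the released DNA.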

| Sequence | binding signal |
| --- | --- |
| GATGATTGTTCTCCCAGCTGATGAATTGTGGTGCTCGAGTAAACAAATTTTCCTAATCTTTCTGTTCAAGCGCCATCTAC | 1.1 RPM ratio (pull-down/input) |
| GATGATTGTTCTCCCAGCTGATGAATTTCGTCCGTCGAGTAAACAAATTTTCCTAATCTTTCTGTTCAAGCGCCATCTAC | 0.836 RPM ratio (pull-down/input) |
| GATGATTGTTCTCCCAGCTGATGAATTCCCCCCTTCGAGTAAACAAATTTTCCTAATCTTTCTGTTCAAGCGCCATCTAC | 0.782 RPM ratio (pull-down/input) |
| GATGATTGTTCTCCCAGCTGATGAATTGCTATAATCGAGTAAACAAATTTTCCTAATCTTTCTGTTCAAGCGCCATCTAC | 1.34 RPM ratio (pull-down/input) |
| GATGATTGTTCTCCCAGCTGATGAATTATCCTGATCGAGTAAACAAATTTTCCTAATCTTTCTGTTCAAGCGCCATCTAC | 0.864 RPM ratio (pull-down/input) |
| GATGATTGTTCTCCCAGCTGATGAATTTTTGCACTCGAGTAAACAAATTTTCCTAATCTTTCTGTTCAAGCGCCATCTAC | 0.891 RPM ratio (pull-down/input) |
| GATGATTGTTCTCCCAGCTGATGAATTATTTCGTTCGAGTAAACAAATTTTCCTAATCTTTCTGTTCAAGCGCCATCTAC | 1.13 RPM ratio (pull-down/input) |
| GATGATTGTTCTCCCAGCTGATGAATTCCTCCCGTCGAGTAAACAAATTTTCCTAATCTTTCTGTTCAAGCGCCATCTAC | 0.793 RPM ratio (pull-down/input) |
| GATGATTGTTCTCCCAGCTGATGAATTTTTGCTATCGAGTAAACAAATTTTCCTAATCTTTCTGTTCAAGCGCCATCTAC | 1.21 RPM ratio (pull-down/input) |
| GATGATTGTTCTCCCAGCTGATGAATTACCCTCATCGAGTAAACAAATTTTCCTAATCTTTCTGTTCAAGCGCCATCTAC | 0.938 RPM ratio (pull-down/input) |
| GATGATTGTTCTCCCAGCTGATGAATTCCCCGGGTCGAGTAAACAAATTTTCCTAATCTTTCTGTTCAAGCGCCATCTAC | 0.71 RPM ratio (pull-down/input) |
| GATGATTGTTCTCCCAGCTGATGAATTGCTTATGTCGAGTAAACAAATTTTCCTAATCTTTCTGTTCAAGCGCCATCTAC | 1.4 RPM ratio (pull-down/input) |
| GATGATTGTTCTCCCAGCTGATGAATTTGCCGTGTCGAGTAAACAAATTTTCCTAATCTTTCTGTTCAAGCGCCATCTAC | 0.872 RPM ratio (pull-down/input) |
| GATGATTGTTCTCCCAGCTGATGAATTAGGTTGTTCGAGTAAACAAATTTTCCTAATCTTTCTGTTCAAGCGCCATCTAC | 1.13 RPM ratio (pull-down/input) |
| GATGATTGTTCTCCCAGCTGATGAATTCGCAGCCTCGAGTAAACAAATTTTCCTAATCTTTCTGTTCAAGCGCCATCTAC | 0.832 RPM ratio (pull-down/input) |
| GATGATTGTTCTCCCAGCTGATGAATTCTATATGTCGAGTAAACAAATTTTCCTAATCTTTCTGTTCAAGCGCCATCTAC | 0.966 RPM ratio (pull-down/input) |
| GATGATTGTTCTCCCAGCTGATGAATTTTTGATGTCGAGTAAACAAATTTTCCTAATCTTTCTGTTCAAGCGCCATCTAC | 1.3 RPM ratio (pull-down/input) |
| GATGATTGTTCTCCCAGCTGATGAATTCCAAGCGTCGAGTAAACAAATTTTCCTAATCTTTCTGTTCAAGCGCCATCTAC | 0.867 RPM ratio (pull-down/input) |
| GATGATTGTTCTCCCAGCTGATGAATTTACTCCATCGAGTAAACAAATTTTCCTAATCTTTCTGTTCAAGCGCCATCTAC | 1.29 RPM ratio (pull-down/input) |
| GATGATTGTTCTCCCAGCTGATGAATTAACGAGGTCGAGTAAACAAATTTTCCTAATCTTTCTGTTCAAGCGCCATCTAC | 0.865 RPM ratio (pull-down/input) |
| GATGATTGTTCTCCCAGCTGATGAATTGTCTACGTCGAGTAAACAAATTTTCCTAATCTTTCTGTTCAAGCGCCATCTAC | 1.05 RPM ratio (pull-down/input) |

| Sequence | binding signal |
| --- | --- |
| GATGATTGTTCTCCCAGCTGATGAATTGAAATCCTCGAGTAAACAAATTTTCCTAATCTTTCTGTTCAAGCGCCATCTAC | 0.722 RPM ratio (pull-down/input) |
| GATGATTGTTCTCCCAGCTGATGAATTGAGTTGTTCGAGTAAACAAATTTTCCTAATCTTTCTGTTCAAGCGCCATCTAC | 1.16 RPM ratio (pull-down/input) |
| GATGATTGTTCTCCCAGCTGATGAATTGTAAATCTCGAGTAAACAAATTTTCCTAATCTTTCTGTTCAAGCGCCATCTAC | 1.16 RPM ratio (pull-down/input) |
| GATGATTGTTCTCCCAGCTGATGAATTCGCGTGATCGAGTAAACAAATTTTCCTAATCTTTCTGTTCAAGCGCCATCTAC | 0.952 RPM ratio (pull-down/input) |
| GATGATTGTTCTCCCAGCTGATGAATTAGATTTTTCGAGTAAACAAATTTTCCTAATCTTTCTGTTCAAGCGCCATCTAC | 0.869 RPM ratio (pull-down/input) |
| GATGATTGTTCTCCCAGCTGATGAATTGCTTCACTCGAGTAAACAAATTTTCCTAATCTTTCTGTTCAAGCGCCATCTAC | 1.01 RPM ratio (pull-down/input) |
| GATGATTGTTCTCCCAGCTGATGAATTTATCGGTTCGAGTAAACAAATTTTCCTAATCTTTCTGTTCAAGCGCCATCTAC | 1.09 RPM ratio (pull-down/input) |
| GATGATTGTTCTCCCAGCTGATGAATTTATCGTGTCGAGTAAACAAATTTTCCTAATCTTTCTGTTCAAGCGCCATCTAC | 1.22 RPM ratio (pull-down/input) |
| GATGATTGTTCTCCCAGCTGATGAATTCTCATGTTCGAGTAAACAAATTTTCCTAATCTTTCTGTTCAAGCGCCATCTAC | 0.861 RPM ratio (pull-down/input) |
| GATGATTGTTCTCCCAGCTGATGAATTTCTGACATCGAGTAAACAAATTTTCCTAATCTTTCTGTTCAAGCGCCATCTAC | 0.96 RPM ratio (pull-down/input) |
| GATGATTGTTCTCCCAGCTGATGAATTGCGGATTTCGAGTAAACAAATTTTCCTAATCTTTCTGTTCAAGCGCCATCTAC | 1.14 RPM ratio (pull-down/input) |
| GATGATTGTTCTCCCAGCTGATGAATTGGAGGCTTCGAGTAAACAAATTTTCCTAATCTTTCTGTTCAAGCGCCATCTAC | 0.93 RPM ratio (pull-down/input) |
| GATGATTGTTCTCCCAGCTGATGAATTGGGCAGGTCGAGTAAACAAATTTTCCTAATCTTTCTGTTCAAGCGCCATCTAC | 0.719 RPM ratio (pull-down/input) |
| GATGATTGTTCTCCCAGCTGATGAATTCAGACCATCGAGTAAACAAATTTTCCTAATCTTTCTGTTCAAGCGCCATCTAC | 0.799 RPM ratio (pull-down/input) |
| GATGATTGTTCTCCCAGCTGATGAATTGACCTGATCGAGTAAACAAATTTTCCTAATCTTTCTGTTCAAGCGCCATCTAC | 0.942 RPM ratio (pull-down/input) |
| GATGATTGTTCTCCCAGCTGATGAATTCGTAGTATCGAGTAAACAAATTTTCCTAATCTTTCTGTTCAAGCGCCATCTAC | 1 RPM ratio (pull-down/input) |
| GATGATTGTTCTCCCAGCTGATGAATTAAGTTTATCGAGTAAACAAATTTTCCTAATCTTTCTGTTCAAGCGCCATCTAC | 1.55 RPM ratio (pull-down/input) |
| GATGATTGTTCTCCCAGCTGATGAATTCCATCCGTCGAGTAAACAAATTTTCCTAATCTTTCTGTTCAAGCGCCATCTAC | 0.766 RPM ratio (pull-down/input) |
| GATGATTGTTCTCCCAGCTGATGAATTAACAAACTCGAGTAAACAAATTTTCCTAATCTTTCTGTTCAAGCGCCATCTAC | 1.31 RPM ratio (pull-down/input) |
| GATGATTGTTCTCCCAGCTGATGAATTGCGCGTTTCGAGTAAACAAATTTTCCTAATCTTTCTGTTCAAGCGCCATCTAC | 1.19 RPM ratio (pull-down/input) |
| GATGATTGTTCTCCCAGCTGATGAATTGTTCCGATCGAGTAAACAAATTTTCCTAATCTTTCTGTTCAAGCGCCATCTAC | 1.04 RPM ratio (pull-down/input) |

| Sequence | binding signal |
| --- | --- |
| GATGATTGTTCTCCCAGCTGATGAATTCCTCCACTCGAGTAAACAAATTTTCCTAATCTTTCTGTTCAAGCGCCATCTAC | 0.831 RPM ratio (pull-down/input) |
| GATGATTGTTCTCCCAGCTGATGAATTAGGGACGTCGAGTAAACAAATTTTCCTAATCTTTCTGTTCAAGCGCCATCTAC | 0.843 RPM ratio (pull-down/input) |
| GATGATTGTTCTCCCAGCTGATGAATTTTTGAATTCGAGTAAACAAATTTTCCTAATCTTTCTGTTCAAGCGCCATCTAC | 0.974 RPM ratio (pull-down/input) |
| GATGATTGTTCTCCCAGCTGATGAATTATCTGGCTCGAGTAAACAAATTTTCCTAATCTTTCTGTTCAAGCGCCATCTAC | 0.861 RPM ratio (pull-down/input) |
| GATGATTGTTCTCCCAGCTGATGAATTTGGTGTATCGAGTAAACAAATTTTCCTAATCTTTCTGTTCAAGCGCCATCTAC | 1.17 RPM ratio (pull-down/input) |
| GATGATTGTTCTCCCAGCTGATGAATTACCATTATCGAGTAAACAAATTTTCCTAATCTTTCTGTTCAAGCGCCATCTAC | 1.06 RPM ratio (pull-down/input) |
| GATGATTGTTCTCCCAGCTGATGAATTTACCTTTTCGAGTAAACAAATTTTCCTAATCTTTCTGTTCAAGCGCCATCTAC | 1.35 RPM ratio (pull-down/input) |
| GATGATTGTTCTCCCAGCTGATGAATTTCTGTAGTCGAGTAAACAAATTTTCCTAATCTTTCTGTTCAAGCGCCATCTAC | 0.942 RPM ratio (pull-down/input) |
| GATGATTGTTCTCCCAGCTGATGAATTTCTCGCGTCGAGTAAACAAATTTTCCTAATCTTTCTGTTCAAGCGCCATCTAC | 0.918 RPM ratio (pull-down/input) |
| GATGATTGTTCTCCCAGCTGATGAATTTTCATTATCGAGTAAACAAATTTTCCTAATCTTTCTGTTCAAGCGCCATCTAC | 0.969 RPM ratio (pull-down/input) |
| GATGATTGTTCTCCCAGCTGATGAATTGGGACATTCGAGTAAACAAATTTTCCTAATCTTTCTGTTCAAGCGCCATCTAC | 0.913 RPM ratio (pull-down/input) |
| GATGATTGTTCTCCCAGCTGATGAATTAGTCGAGTCGAGTAAACAAATTTTCCTAATCTTTCTGTTCAAGCGCCATCTAC | 0.956 RPM ratio (pull-down/input) |
| GATGATTGTTCTCCCAGCTGATGAATTCCGCCTATCGAGTAAACAAATTTTCCTAATCTTTCTGTTCAAGCGCCATCTAC | 0.791 RPM ratio (pull-down/input) |
| GATGATTGTTCTCCCAGCTGATGAATTGTTAGACTCGAGTAAACAAATTTTCCTAATCTTTCTGTTCAAGCGCCATCTAC | 1.07 RPM ratio (pull-down/input) |
| GATGATTGTTCTCCCAGCTGATGAATTGAGAGCTTCGAGTAAACAAATTTTCCTAATCTTTCTGTTCAAGCGCCATCTAC | 0.858 RPM ratio (pull-down/input) |
| GATGATTGTTCTCCCAGCTGATGAATTGAGAATATCGAGTAAACAAATTTTCCTAATCTTTCTGTTCAAGCGCCATCTAC | 1.04 RPM ratio (pull-down/input) |
| GATGATTGTTCTCCCAGCTGATGAATTAGGTCCGTCGAGTAAACAAATTTTCCTAATCTTTCTGTTCAAGCGCCATCTAC | 0.87 RPM ratio (pull-down/input) |
| GATGATTGTTCTCCCAGCTGATGAATTAGAGCTATCGAGTAAACAAATTTTCCTAATCTTTCTGTTCAAGCGCCATCTAC | 0.956 RPM ratio (pull-down/input) |
| GATGATTGTTCTCCCAGCTGATGAATTCCCAGACTCGAGTAAACAAATTTTCCTAATCTTTCTGTTCAAGCGCCATCTAC | 0.788 RPM ratio (pull-down/input) |
| GATGATTGTTCTCCCAGCTGATGAATTTCCAATCTCGAGTAAACAAATTTTCCTAATCTTTCTGTTCAAGCGCCATCTAC | 0.867 RPM ratio (pull-down/input) |
| GATGATTGTTCTCCCAGCTGATGAATTCATGTCCTCGAGTAAACAAATTTTCCTAATCTTTCTGTTCAAGCGCCATCTAC | 0.771 RPM ratio (pull-down/input) |
